{"source": "PubChem BioAssay AID1454", "about": "(National Center for Advancing Translational Sciences (NCATS), 2008)", "note": "About 550 (0.42%) of roughly 130,000 compounds were called active. The shares of active, inactive and inconclusive entries below differ from those in the screen. Calls come from the whole dose curve; as a rule, active = well fitted inhibition curve with a large enough effect; inconclusive = small, poorly fitted or top-dose-only effect, or effect the other way; inactive = flat fitted curve, though single readings scatter. No potency is given beside an inconclusive call; the fits are too rough. Some compounds were tested as several samples or in several runs, with calls that do not always agree. Potency is the fitted concentration of half-maximal effect; tags give direction and shape of the fitted curve."}
{"assay": "qHTS Assay for Inhibitors of the ERK Signaling Pathway using a Homogeneous Screening Assay; Stimulation with EGF; note: nearly all actives have a fitted effect of over 55% in size;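 for activity change, negative = inhibition: plate controls were stimulated vehicle wells for no effect and unstimulated vehicle basal for full effect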", "conditions": "HEK293-V1b, EGF-stimulated phospho-ERK AlphaScreen; activity change, negative = inhibition: at the top concentration", "in_short": "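Readout: AlphaScreen signal for phosphorylated ERK in lysed HEK293 cells stably expressing V1b. Stimulus 25 nM EGF, 5 min, following 30 min compound exposure. Data scaled to DMSO basal and full EGF activation.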"}
{"molecule": "C(=N\\Nc1ccccn1)/c1ccc(N2CCOCC2)cc1", "Potency": "inconclusive [inhibitor, partial curve]"}
{"molecule": "CCOC(=O)[C@@]12C[C@@H]1/C(=N/O)c1ccccc1O2", "activity change, negative = inhibition": "inactive: -3.34%"}
{"molecule": "COC(=O)C1=CN(Cc2cccs2)C=C(C(=O)OC)C1c1cccc(Cl)c1", "Potency": "inconclusive [activator, partial curve, poor fit]"}
{"molecule": "O=C(COc1ccccc1[N+](=O)[O-])Nc1ccc(N2CCN(C(=O)c3cccs3)CC2)cc1", "Potency": "inconclusive [inhibitor, partial curve]"}
{"molecule": "CCOC(=O)c1c(Cc2cccc(Cl)c2)c[nH]c1C", "Potency": "inconclusive [inhibitor, single point]"}
{"molecule": "Cc1ccc(N2CCN(CC(O)COc3cccc4ccccc34)CC2)cc1", "note": "(stereo unspecified)", "Potency": "inconclusive [inhibitor, partial curve]"}
{"molecule": "CC1=NN(c2nc(-c3ccccc3)cs2)C(=O)C1N=Nc1ccccc1", "note": "(stereo unspecified)", "Potency": "inconclusive [inhibitor, full curve]"}
{"molecule": "O=C(NC1CCN(Cc2ccccc2)CC1)c1ccc(S(=O)(=O)NCc2ccco2)cc1", "Potency": "inconclusive [inhibitor, single point]"}
{"molecule": "COCCCN1CCN(C2Cc3ccccc3Sc3ccc(Cl)cc32)CC1", "note": "(stereo unspecified)", "Potency": "inconclusive [inhibitor, single point]"}
{"molecule": "COC(=O)[C@@H]1CCCN1C(=O)CCc1nnc(CCc2c[nH]c3ccccc23)o1", "Potency": "inconclusive [activator, partial curve, poor fit]"}
{"molecule": "COC(=O)C(C(=O)OC)c1ncc(C(F)(F)F)cc1Cl", "Potency": "inconclusive [inhibitor, single point]"}
{"molecule": "CC(C)OCCCNC(=O)C(NC(=O)c1ccc(Cl)cc1)C(C)C", "note": "(stereo unspecified)", "Potency": "inconclusive [activator, partial curve, poor fit]"}
{"molecule": "O=C1C(NS(=O)(=O)c2ccc(Cl)cc2)=C(N2CCCCC2)C(=O)c2ccccc21", "Potency": "active: 14.1 µM"}
{"molecule": "N/C(=N\\OC(=O)c1cccc(Cn2cc(C(F)(F)F)ccc2=O)c1)c1ccc(Cl)cc1", "Potency": "inconclusive [inhibitor, single point]"}
{"molecule": "Cc1cc(OCC(=O)Nc2nnc(C3CC3)s2)ccc1[N+](=O)[O-]", "Potency": "inconclusive [inhibitor, single point]"}
{"molecule": "Nc1cc(C(=O)c2ccccc2)ccc1[N+](=O)[O-]", "Potency": "inconclusive [inhibitor, single point]"}
{"molecule": "CC(C)CN1C(=O)/C(=C/c2c(N3CCc4ccccc4C3)nc3ccccn3c2=O)SC1=S", "Potency": "inconclusive [inhibitor, single point]"}
{"molecule": "COCC(C)n1c(C)cc(C(=O)CSc2nc(C)c(C)c(C)n2)c1C", "note": "(stereo unspecified)", "Potency": "inconclusive [inhibitor, single point]"}
{"molecule": "Cc1ccccc1Nc1scc(-c2ccc(Br)cc2)[n+]1-c1ccccc1C", "Potency": "inconclusive [inhibitor, single point]"}
{"molecule": "O=C1CC(c2cccc(Cl)c2)CC(O)=C1C=Nc1cccc(Cl)c1", "note": "(stereo unspecified)", "activity change, negative = inhibition": "inactive: -3.57%"}
{"molecule": "Cc1ccc(S(=O)(=O)CCN2CCC(n3cccc3)CC2)cc1", "Potency": "inconclusive [inhibitor, single point]"}
{"molecule": "COc1cc(CNCCc2ccccc2)cc(Cl)c1OCc1ccccc1", "Potency": "inconclusive [inhibitor, single point]"}
{"molecule": "CN(C)CCNc1ncnc2c1sc1nc(-c3ccccc3)c3c(c12)CCCC3", "Potency": "inconclusive [inhibitor, single point]"}
{"molecule": "COc1ccc(C(=O)N2CCC3(CC2)CN(Cc2ccc(C#N)cc2)C3)cc1", "activity change, negative = inhibition": "inactive: -9.04%"}
{"molecule": "O=C(COc1ccc([N+](=O)[O-])cc1)N1CCN(c2nnc(-c3ccccc3)c3ccccc23)CC1", "Potency": "inconclusive [inhibitor, single point]"}
{"molecule": "O=[N+]([O-])c1ccc2c(c1)nc1n2CCN(c2ccccc2)C1", "Potency": "inconclusive [inhibitor, partial curve]"}
{"molecule": "O=C(O)c1cc(-c2ccco2)nc2ccccc12", "Potency": "inconclusive [activator, single point]"}
{"molecule": "Cn1ccnc1SCC(=O)Nc1nc2ccccc2s1", "Potency": "inconclusive [inhibitor, single point]"}
{"molecule": "C[C@H]1OC(=O)CC[C@@H]2[C@]1(C)CCC1[C@@]2(C)CC[C@@]2(C)C3CC(C)(C)CC[C@]3(CO)CC[C@]12C", "note": "(stereo partly specified)", "activity change, negative = inhibition": "inactive: -5.31%"}
{"molecule": "COc1cc(/C=C2\\SC(=S)N(CC(=O)Nc3ccccn3)C2=O)cc(OC)c1OC", "Potency": "inconclusive [inhibitor, partial curve]"}
{"molecule": "C#CCN(Cc1ccco1)C(=O)c1cc(COc2ccc(F)cc2Cl)on1", "Potency": "inconclusive [inhibitor, single point]"}
{"molecule": "CC1CCCN(c2ccc(C(=O)NCc3ccccc3)cn2)C1", "note": "(stereo unspecified)", "Potency": "inconclusive [inhibitor, single point]"}
{"molecule": "O=C(N/N=C/c1ccccn1)c1cc(-c2ccc3ccccc3c2)n[nH]1", "Potency": "inconclusive [inhibitor, partial curve, poor fit]"}
{"molecule": "CN1CCc2cccc3c2[C@@H]1Cc1ccc(O)c(O)c1-3", "Potency": "inconclusive [inhibitor, single point]"}
{"molecule": "CN(C)CCOC(c1ccccc1)c1ccccc1", "Potency": "active: 14.1 µM"}
{"molecule": "O=c1cc2oc3cc(O)c(O)cc3c(-c3ccccc3O)c-2cc1O", "Potency": "inconclusive [inhibitor, partial curve]"}
{"molecule": "CCCCCCCC(=O)OC[C@H](CO)OC(=O)CCCCCCC", "activity change, negative = inhibition": "inactive: 5.28%"}
{"molecule": "O=C(CN1c2ccccc2Sc2ccccc21)N/N=C/c1ccc([N+](=O)[O-])cc1", "Potency": "inconclusive [inhibitor, single point]"}
{"molecule": "CCCCNC(=O)N1CCN(Cc2ccc(F)cc2)CC1", "Potency": "inconclusive [activator, full curve, poor fit]"}
{"molecule": "CCc1ccc(-c2nn(-c3ccccc3)cc2CSC(=N)N)cc1", "Potency": "inconclusive [inhibitor, single point]"}
{"molecule": "Cn1c(O)c(N=NC(=O)c2cccc(S(=O)(=O)N3CCCCC3)c2)c2ccccc21", "Potency": "inconclusive [inhibitor, single point]"}
